The subject of experiment [1] is NMDA receptor-induced substance P release. The experiment can be described thus: NMDA-induced NK1R internalization in slices preincubated with BDNF. Further details: species or system rat. The settings on record: 20 ng/ml BDNF; 1 μM DAMGO, 100 μM SQ22536 or 10 μM KT5720, 60 min.
Experiment [2] shares this test system. Description: NMDA-induced NK1R internalization in slices preincubated with BVT948. Further details: species or system rat. The settings on record: 10 μM BVT948; 1 μM DAMGO, 100 μM SQ22536 or 10 μM KT5720, 60 min.

In the case of `CCCCCCOC(=O)[C@]1(O)C[C@@H]2O[C@@]1(C)n1c3ccccc3c3c4c(c5c6ccccc6n2c5c31)C(=O)NC4` [KT5720, (9R,10S,12S)-2,3,9,10,11,12-Hexahydro-10-hydroxy-9-methyl-1-oxo-9,12-epoxy-1H-diindolo[1,2,3-fg:3′,2′,1′-kl]pyrrolo[3,4-i][1,6]benzodiazocine-10-carboxylic acid, hexyl ester], the “inhibition of NMDA-induced NK1R internalization in presence of BDNF” value in experiment [1] is “did not preclude the inhibition”. Further, the “inhibition of NMDA-induced NK1R internalization in presence of BVT948” value in experiment [2] is on record as “still occurred”.

In the case of `Nc1ncnc2c1ncn2C1CCCO1` (stereo not shown) [SQ22536, 9-(Tetrahydro-2-furanyl)-9H-purin-6-amine], the “inhibition of NMDA-induced NK1R internalization in presence of BDNF” value in experiment [1] is “did not preclude the inhibition”. Moreover, the “inhibition of NMDA-induced NK1R internalization in presence of BVT948” value in experiment [2] is on record as “still occurred”.

(Values after PMC5726399 (Neuropharmacology, 2017).)
